Measured values from PubChem BioAssay AID1508623 (National Center for Advancing Translational Sciences (NCATS), 2021).
The campaign covered roughly 48,000 compounds. About 450 (0.94%) were called active. About 19% were inconclusive and are not listed. Calls follow the shape of the dose curve; as a rule, active = well fitted inhibition curve with a large enough effect; inconclusive = small, poorly fitted or top-dose-only effect; inactive = no such curve, though single readings can be large or run the other way. The list shows a part of the results.

Assay: Primary qHTS for Identification of Small Molecule Inhibitors of Huntingtin Promoter Activity; also: nearly all actives have a fitted effect of over 50% in size
Details: HEK293 HTT promoter firefly luciferase reporter (activity 0% = vehicle and -100% = no light), 24 h; series mostly up to 57.5 µM; activity change, negative = inhibition: at the top concentration
Method in brief: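 HEK293 cells carrying firefly luciferase reporters were seeded at 2,500 per well in Opti-MEM and cultured for 24 h. They were then treated with compounds at up to 57.5 uM final for 24 h at 37 degrees C before Dual-Glo luminescence readout.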

Row | SMILES | activity change, negative = inhibition
1 | CN(C)S(=O)(=O)c1ccc2c(c1)N(CC(=O)Nc1cccc(C(F)(F)F)c1)C(=O)CS2 | inactive: -35%
2 | CC(C)(C)OC(=O)N1CCC(N2CCN(Cc3ccccc3)C(=O)C2=O)CC1 | inactive: -11.8%
3 | CCOC(=O)c1ccccc1NC(=O)NCc1c(-n2cccc2)sc2c1CCCC2 | inactive: -26.9%
4 | Clc1ccc(-c2cc3ncc4c(n3n2)-c2ccccc2OC4)cc1 | inactive: 21.8%
5 | O=C(Nc1ccccc1-c1nc2ccccc2s1)c1ccc(F)cc1 | inactive: -7.01%
6 | COc1ccc(CCNc2nc3c(-c4cccc(C(F)(F)F)c4)nnn3c3ccccc23)cc1OC | inactive: -7.07%
7 | CCOc1ccc(NC(=O)c2cc3cc(C)ccc3n2C)cc1 | inactive: -7.37%
8 | COc1ccccc1NC(=O)CSc1oc(-c2ccco2)nc1S(=O)(=O)c1ccc(C)cc1 | inactive: -25.7%
9 | CCOc1ccc(NC(=O)c2oc3ccccc3c2NC(=O)C(C)(C)C)cc1 | inactive: -15.7%
10 | CCOc1ccc2nc(N3CCCC(C(=O)Nc4ccc(OC)cc4)C3)sc2c1 (stereo not drawn) | inactive: 44.2%
11 | COc1ccc(CCNC(=O)c2c(O)nc3ccccn3c2=O)cc1OC | inactive: -11.6%
12 | Cc1ccc(C(=O)Nc2nnc(S(=O)(=O)N(C)Cc3ccc(Cl)cc3)s2)cc1 | inactive: 11.2%
13 | COc1cc(Nc2ncc3c(n2)CCN(Cc2ccc(OC(C)C)c(OC)c2)C3)cc(OC)c1 | inactive: -34.1%
14 | COc1ccc(NC(=O)c2csnn2)cc1Cl | inactive: 44.1%
15 | CCc1nn2c(=O)cc(COC(=O)c3ccc(NC(=O)COc4ccccc4C)cc3)nc2s1 | inactive: -19.4%
16 | Cc1ccc(NC(=O)N2CC3CCCN3c3ccccc32)cc1Cl (stereo not drawn) | inactive: -28%
17 | O=C(Cn1ncc2c3ccccc3n(Cc3ccccc3F)c2c1=O)N1CCCCCC1 | inactive: -7.64%
18 | CCN1CCN(c2nnc(-n3cccc3C(=O)NCc3ccccc3OC)s2)CC1 | inactive: -4.1%
19 | COc1ccc(NC(=O)C2CCN(C3=NS(=O)(=O)C(c4ccc(C)c(C)c4)=C3C)CC2)c(OC)c1 | inactive: -13.4%
20 | Cc1ccccc1OC(=O)c1cc(-c2ccc3c(c2)OCCO3)on1 | inactive: -5.57%
21 | O=C(NCCc1csc(-c2cccc(F)c2)n1)C(=O)Nc1cc(F)ccc1F | inactive: -1.21%

Row | SMILES | activity change, negative = inhibition
22 | COc1cccc(CNC(=O)C2CCN(S(=O)(=O)c3c(C)noc3/C=C/c3cccs3)CC2)c1 | inactive: -30%
23 | Cc1ccc(C)c(NC(=O)Cc2coc3cc(C)cc(C)c23)c1 | inactive: -15.6%
24 | O=C(c1cc2ccc3cccnc3c2[nH]1)N1CCCCC1 | inactive: -49.6%
25 | CCc1ccccc1NC(=O)Cn1nnc2sc3c(c2c1=O)CCC(C(C)(C)C)C3 (stereo not drawn) | inactive: -19.5%
26 | COc1ccc(C)cc1NS(=O)(=O)c1cnc(N)nc1 | inactive: -3.32%
27 | CCOC(=O)c1sc2ncn(CC(=O)Nc3cc(Cl)ccc3C)c(=O)c2c1C | inactive: 2.69%
28 | CCOC(=O)c1cc2c(=O)n3ccccc3nc2n(CC2CCCO2)c1=NC(=O)c1ccccc1Br (stereo not drawn) | inactive: -6.75%
29 | CC(=O)c1ccc(N2CCN(C(=O)c3cc(S(=O)(=O)N4CCCCCC4)cn3C)CC2)cc1 | inactive: -23.9%
30 | Cc1cccc(NC(=O)CSc2ccc(-c3sc(-c4ccccc4)nc3C)nn2)c1C | inactive: 4.53%
31 | Cc1cc(C(=O)Nc2c(C)cccc2C)n(-c2ccccc2)n1 | inactive: -15.6%
32 | O=C(OCc1cc(=O)n2nc(-c3cccs3)sc2n1)c1cccc(F)c1 | inactive: 2.25%
33 | Cc1ccc(S(=O)(=O)c2nnn3c2nc(NC2CCCCCC2)c2sccc23)cc1C | inactive: -12.6%
34 | CC(C)c1nn2c(=O)cc(COC(=O)C3CCCCC3)nc2s1 | inactive: -2.33%
35 | CCCOc1cccc(C2c3c(oc4ccc(F)cc4c3=O)C(=O)N2CCCN2CCOCC2)c1 (stereo not drawn) | inactive: -10.9%
36 | CCCOc1ccc(-c2nonc2NC(=O)c2ccco2)cc1OCCC | inactive: -29.9%
37 | CC1CCN(C(=O)c2cc3c(=O)n(C)c4cc(Cl)ccc4c3s2)CC1 | inactive: 4.17%
38 | Cc1cc(Br)cc(C)c1NC(=O)c1sc2ncn(Cc3cccc(F)c3)c(=O)c2c1C | inactive: 1.8%
39 | CCNC(=O)c1ccc(C)c(-n2c(C)nc3cccnc32)c1 | inactive: -16.2%
40 | Cc1ccc(NC(=O)Cn2c(=O)c3ccc(Cl)cc3n3nncc23)cc1 | inactive: -14.1%
41 | O=C(Cn1c(-c2cccs2)cc2ccccc21)N1CCN(c2ccc(Cl)cc2)CC1 | inactive: -10%
42 | COc1cccc(-c2csc(-c3c(N)c(C(=O)c4ccc5c(c4)OCO5)n4ccccc34)n2)c1 | inactive: -4.03%

Row | SMILES | activity change, negative = inhibition
43 | CCOc1ccc(C2C(C(=O)Nc3ccccc3)=C(C)Nc3nc(-c4ccccc4)nn32)cc1OC (stereo not drawn) | inactive: -7.11%
44 | Cc1ccc(S(=O)(=O)NC(=O)NN2CCCCCC2)cc1 | inactive: 8.24%
45 | COc1ccc(-c2cn3c(n2)sc2cc(C(=O)NCCC4=CCCCC4)ccc23)cc1 | inactive: -0.752%
46 | COc1cccc(OC)c1C(=O)N[C@@H]1C(=O)N2[C@@H]1SC(C)(C)[C@@H]2C(=O)O | inactive: 9.7%
47 | COc1ccc(OC)c(NC(=O)C(C)n2c(=O)cc(C)c3c(C)nn(-c4ccccc4)c32)c1 (stereo not drawn) | inactive: 13%
48 | O=c1c2cnn(-c3ccc(F)cc3)c2ncn1Cc1ccccc1Cl | inactive: -9.18%
49 | Cc1cc(C)n(CCc2nc3c4ccccc4nc(SCc4ccc(F)cc4)n3n2)n1 | inactive: -16.5%
50 | Cc1ccc(CNC(=O)c2c[nH]c3ccc(S(=O)(=O)N4CCOCC4)cc3c2=O)cc1 | inactive: 0.198%
51 | O=C(NC1CC(=O)N(c2ccc(F)cc2)C1)C1CCCC1 (stereo not drawn) | inactive: 0.766%
52 | Cc1c(C(=O)Nc2ccc(F)cc2F)oc2c1-c1nn(Cc3c(F)cccc3Cl)cc1CC2 | inactive: -10.9%
53 | CCOC(=O)c1c(NC(=O)c2ccc(C)cc2)sc2c1CCCCC2 | inactive: -10.8%
54 | COc1ccc(C)cc1NC(c1nnc(-c2ccccc2)o1)c1ccc(F)cc1Cl (stereo not drawn) | inactive: -23.9%
55 | CC(=O)c1ccc(S(=O)(=O)Nc2ccc(-c3cn4c(C)csc4n3)cc2)cc1 | inactive: -3.31%
56 | CCc1ccc(N2CC(c3nnc(NC(=O)c4ccco4)s3)CC2=O)cc1 (stereo not drawn) | inactive: -15.5%
57 | N#Cc1ccccc1NC(=O)CSc1nc(-c2ccccc2)cc(C(F)(F)F)c1C#N | inactive: -28%
58 | COc1cc(Cl)c(C)cc1NC(=O)c1cc(S(=O)(=O)N2CCCC2)ccc1F | inactive: -7.66%
59 | Cc1ccc(Nc2nc(-c3ccccc3)nc3ccccc23)cc1 | inactive: -28.6%
60 | Cc1cc(NC(=O)c2ccccc2F)ccc1-c1nc2ccccc2s1 | inactive: 49.2%
61 | Cc1ccc(-n2cnc3cc(C(=O)NCCC4=CCCCC4)ccc32)c(C)c1 | inactive: -25.2%
62 | CCOC(=O)Cc1ccc(NC(=O)N(Cc2ccc(OC)cc2)C2CCN(C(C)=O)CC2)cc1 | inactive: -13.2%
63 | CCOC(=O)c1c(NC(=O)/C(C#N)=C/c2ccc(OC)cc2)sc2c1CCC2 | inactive: -3.41%
